Measurements published in paper PMC7819943, “Rice protein-binding microarrays: a tool to detect cis-acting elements near promoter regions in rice”.
The other results are listed elsewhere or left out.

Molecular target: T1, OsWOX13 (Oryza sativa, UniProt Q5QMM3 1-267)
T1 sequence: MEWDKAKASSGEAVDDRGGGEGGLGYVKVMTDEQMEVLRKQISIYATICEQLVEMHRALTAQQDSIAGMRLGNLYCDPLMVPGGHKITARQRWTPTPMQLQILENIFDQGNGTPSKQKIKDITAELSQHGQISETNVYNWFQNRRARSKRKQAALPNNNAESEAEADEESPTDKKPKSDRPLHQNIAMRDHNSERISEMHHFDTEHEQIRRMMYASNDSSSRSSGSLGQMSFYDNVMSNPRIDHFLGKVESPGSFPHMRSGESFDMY
Experiment: protein-binding microarray (RPBM); PBS, 2% BSA, 51.3 ng/ul salmon testes DNA, 50 uM zinc acetate, 200 nM TF, 25 C, 1 h; high values mean tight binding
Settings: protein: recombinant; tags: N-terminal polyhistidine and DsRed monomer fusion (pET32a); label: CyDye5-dUTP incorporated in the synthesized complementary strand; 3' TTTTT single-stranded linker to array surface; dsDNA, one strand shown
Method in brief: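 Binding signal here means per-feature fluorescence intensity in arbitrary units. The values were read on an Axon 4000B scanner after a custom Agilent array, double-stranded by primer extension with Cy5-dUTP, was incubated with 200 nM protein at 25 °C for 1 h in PBS with 2% BSA, salmon testes DNA and 50 µM zinc acetate, then washed. The proteins were transcription factors with an N-terminal polyhistidine tag and DsRed, expressed in E. coli BL21-CodonPlus and purified on Ni–NTA.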

Sequence | binding signal
ACAAATTACAGATTCCGCTTGTAAACTGCAAGACGAATTTCGGAGTCACCTAGTGCAG | 8660 fluorescence intensity (a.u.)
GTGTATCATCTAGGTCCTAAATTGACACATCCCCTCTAGGCGGAGTCACCTAGTGCAG | 10100 fluorescence intensity (a.u.)
TATATATATATATATATATATATATATAAAACAATGTAAACGGAGTCACCTAGTGCAG | 16800 fluorescence intensity (a.u.)
AGAAATTAAATTTAATCAGCACAGATCAACACACGTAAGTCGGAGTCACCTAGTGCAG | 37700 fluorescence intensity (a.u.)
CAAGCTGATTATAGAGGCCATTGTTAGAAAATCCGTCTCTCGGAGTCACCTAGTGCAG | 4350 fluorescence intensity (a.u.)
TCAATAAATCATAAAACAAATTTATTAAGCCTAATTAATCCGGAGTCACCTAGTGCAG | 14000 fluorescence intensity (a.u.)
TTCAAAATCAATTACTCAGTTTCAGTTTCTTTCTACGATTCGGAGTCACCTAGTGCAG | 11600 fluorescence intensity (a.u.)
AATACATGACTACAGATTTGATTAGATTCCATCTTTACATCGGAGTCACCTAGTGCAG | 10200 fluorescence intensity (a.u.)
AATATATACATAAACAAATTATTATTATAATTCTGCCTCCCGGAGTCACCTAGTGCAG | 3580 fluorescence intensity (a.u.)
CCGAACAAGAGGTGACTGTGATAATCATATTGGTCTCACCCGGAGTCACCTAGTGCAG | 4680 fluorescence intensity (a.u.)
AAGTTAATTTTAGGTATCTTTTCGTAGTTTATTTTCTAGCCGGAGTCACCTAGTGCAG | 13700 fluorescence intensity (a.u.)
CTTATCAATCTGTTTATTAATATTTACGCAGTATTGCAGTCGGAGTCACCTAGTGCAG | 14500 fluorescence intensity (a.u.)
TGTTGGTGCTGTGATTAATTGGTAATCTGCTTTTACAAGCCGGAGTCACCTAGTGCAG | 19800 fluorescence intensity (a.u.)
TCTTCTAATTTGTTTTGCGTGGAGAGCATAGCTTAGGATACGGAGTCACCTAGTGCAG | 7680 fluorescence intensity (a.u.)
TGCGTTATTATGTGATTGTTGATGCTTATTCTACGTTAAGCGGAGTCACCTAGTGCAG | 12300 fluorescence intensity (a.u.)
ACTGGACCTTAATTATGATTGTTAGGGACGGATCGGTCGTCGGAGTCACCTAGTGCAG | 21000 fluorescence intensity (a.u.)
TTGTTGTTTACCGTCACACTTAATTACCAGGTCATTTACACGGAGTCACCTAGTGCAG | 3380 fluorescence intensity (a.u.)
TCCAATTACATCAAAGTGATATAACTGTATTGAGAACACTCGGAGTCACCTAGTGCAG | 11700 fluorescence intensity (a.u.)
GACATCGATTGATAGAGACACCGACGCTGTGATGATGGTGCGGAGTCACCTAGTGCAG | 31400 fluorescence intensity (a.u.)
GTAGATTGCCCAACCCGCACCGCTTAGCCAACGCCCCGCCCGGAGTCACCTAGTGCAG | 12000 fluorescence intensity (a.u.)
TCAAATTTGATCATTTTGGAATGGAAGGAGTAGTACTTAGCGGAGTCACCTAGTGCAG | 16800 fluorescence intensity (a.u.)

Sequence | binding signal
ATTATTCCGATTGGAAATGATTTTGCCCAAGATTATGGAACGGAGTCACCTAGTGCAG | 7280 fluorescence intensity (a.u.)
ACCTCCAATAATTGTTCTACTCCAAGCGTTCACAGCTACTCGGAGTCACCTAGTGCAG | 7090 fluorescence intensity (a.u.)
AAAATAAACAGATCCGGTTGAAGTTCATCAGTAGTTTAGGCGGAGTCACCTAGTGCAG | 17700 fluorescence intensity (a.u.)
ACTCTTGACAGGAAGCTATCTTGGAATGGTATATATTGCTCGGAGTCACCTAGTGCAG | 13800 fluorescence intensity (a.u.)
ATTTTAAATTTATTATATGATGATTAATTTGGGAATGAGGCGGAGTCACCTAGTGCAG | 28400 fluorescence intensity (a.u.)
GGTTCAGTGATATGATTTAAACTCGACCCTTAGACGAGAGCGGAGTCACCTAGTGCAG | 9820 fluorescence intensity (a.u.)
GATAATGATATGACCATGGTGATTTCGTCAATCTCAATACCGGAGTCACCTAGTGCAG | 12100 fluorescence intensity (a.u.)
TAATAAATTGTTAACAGAAATTATATTTAAATGTTCATTACGGAGTCACCTAGTGCAG | 24100 fluorescence intensity (a.u.)
ACCATCGATTTAATTTGACTGTTGATCATAATAATATATCCGGAGTCACCTAGTGCAG | 11200 fluorescence intensity (a.u.)
ATCAGATTTCTGATAGGACAGGACTAGAGGAACAGGCCGGCGGAGTCACCTAGTGCAG | 3500 fluorescence intensity (a.u.)
TTTTGATTTTGATTAAAGTCAAATTACTTTAAATATGACACGGAGTCACCTAGTGCAG | 21800 fluorescence intensity (a.u.)
TGAAGAACGTTACTCTAATTAGTAAAACTACCGTCCACGTCGGAGTCACCTAGTGCAG | 4040 fluorescence intensity (a.u.)
ATGGTGATTGGGAGGGTGAATCAGAGTGACTAAAAGAAATCGGAGTCACCTAGTGCAG | 23300 fluorescence intensity (a.u.)
ATTATTAACACAAATTATGATTTTGATGATCCTCGTGGATCGGAGTCACCTAGTGCAG | 34300 fluorescence intensity (a.u.)
AATAATAGAGGAAATTATTTTGGAATGTTACTCATGATTTCGGAGTCACCTAGTGCAG | 8020 fluorescence intensity (a.u.)
ACAATTAATCACACGTACCCTAGCCAGCTTGCTAATAAACCGGAGTCACCTAGTGCAG | 3220 fluorescence intensity (a.u.)
CTTAATTACGAAAAGGCCATACTGGGCCTGTACCTGCATCCGGAGTCACCTAGTGCAG | 24800 fluorescence intensity (a.u.)
TGAATCATGACAAATTTGCTTACAATTCGTTGCTGTAGTGCGGAGTCACCTAGTGCAG | 4180 fluorescence intensity (a.u.)
TCAGTTTTCCCGTTGTTGATTGCGATGATCCAGCCATCTACGGAGTCACCTAGTGCAG | 9040 fluorescence intensity (a.u.)
TCAGATGGAAGTGTGATAGATCGTCGGTGGTGTGGGGAGGCGGAGTCACCTAGTGCAG | 3990 fluorescence intensity (a.u.)
TTAGTCTTTAATGTTTCAATCTGTCCATATTAGTCCTTCACGGAGTCACCTAGTGCAG | 3540 fluorescence intensity (a.u.)

Sequence | binding signal
ATAAATTGTACTTCAACATTTGTAACATGTTGATAAATAACGGAGTCACCTAGTGCAG | 4710 fluorescence intensity (a.u.)
CATTTTGATTACAGCTCGAACAAAGCAGTACAATGCTAAACGGAGTCACCTAGTGCAG | 7470 fluorescence intensity (a.u.)
CTATTACTAGTAATTAATTTATACAAGATTTTGACTTCTCCGGAGTCACCTAGTGCAG | 12900 fluorescence intensity (a.u.)
AACTAATTACAGAATCCGACAGTAAACCGCGAGACGAATTCGGAGTCACCTAGTGCAG | 15700 fluorescence intensity (a.u.)
CGAAAATGATTTGGTACCGTGAGGTACCAGTACCTCGAGACGGAGTCACCTAGTGCAG | 10000 fluorescence intensity (a.u.)
GATAAATTTGGCCATTTTCTTCACTACCAAAATTTTGATTCGGAGTCACCTAGTGCAG | 9000 fluorescence intensity (a.u.)
ATTTAATTGTTTAAATGATAATGTGCAGTCAACATAGTAGCGGAGTCACCTAGTGCAG | 47400 fluorescence intensity (a.u.)
GTTGTAAATGTACATGATATATAAATTGTTGAGATCAAAGCGGAGTCACCTAGTGCAG | 5050 fluorescence intensity (a.u.)
GTGGGGTGGGATTGGAATTAGGAAATAAATGAAGGGTTAACGGAGTCACCTAGTGCAG | 9930 fluorescence intensity (a.u.)
GTAAATTTGGTGGTCTAATCCTGCCACATGAATATTACGACGGAGTCACCTAGTGCAG | 4070 fluorescence intensity (a.u.)
CAATTAATTAGGAGGCCGGTCAGCTCGATCATATCGCAGGCGGAGTCACCTAGTGCAG | 30500 fluorescence intensity (a.u.)
CAAATTTTAGCAAGTAATTATGAAATCTTGCCAAATTTTGCGGAGTCACCTAGTGCAG | 3520 fluorescence intensity (a.u.)
GCCTTGATTTATGGTGTTGCATGCAGCAATGTTATGCAGCCGGAGTCACCTAGTGCAG | 41100 fluorescence intensity (a.u.)
ACTGTAAATTAATTTGGTGTGAGCCTAGCAGGAGAGGGTGCGGAGTCACCTAGTGCAG | 36500 fluorescence intensity (a.u.)
CCCTTGACAGCACAGAGGCAACAGCAAAACACACTCTCATCGGAGTCACCTAGTGCAG | 6340 fluorescence intensity (a.u.)
CTAAATTAGATACCGCTACAGTAAACATTTGCTAATGATACGGAGTCACCTAGTGCAG | 15800 fluorescence intensity (a.u.)
AGTATGTGTTGATTATCTCAATTTTAAGGGAAGATATAACCGGAGTCACCTAGTGCAG | 9990 fluorescence intensity (a.u.)
GGGAATATTAGTGGGATGGGGATGAGGAATTGAGGAAGAACGGAGTCACCTAGTGCAG | 4410 fluorescence intensity (a.u.)
ACTTCAGAAATTGACAAAGATAACATCGTCCTTGTCAAGGCGGAGTCACCTAGTGCAG | 11100 fluorescence intensity (a.u.)
TCTTATGTGATCAATCAAATTCAGATACCATATGATGTCTCGGAGTCACCTAGTGCAG | 12600 fluorescence intensity (a.u.)
GGGTTTCAATCATTTAGGTGGACGTCCACTCATTTATTGCCGGAGTCACCTAGTGCAG | 16200 fluorescence intensity (a.u.)

Sequence | binding signal
ATGTGATGAAATCTGCTTGATTGCTGTTAACATTCATTCCCGGAGTCACCTAGTGCAG | 31300 fluorescence intensity (a.u.)
ACGAAATGCGGTGCTTCCTGTGATTGGCCTGTCCATTCTCCGGAGTCACCTAGTGCAG | 4370 fluorescence intensity (a.u.)
TCCAATTTGTCGTGTCAATTCTGAGTTCTTGGCCCATTCACGGAGTCACCTAGTGCAG | 3630 fluorescence intensity (a.u.)
ATTATAATAAACTGATATAAAATAAGCTGATAGTTCTTTGCGGAGTCACCTAGTGCAG | 5180 fluorescence intensity (a.u.)
AATAAAACTTACATGAGTTAATTGAGTGAGAAATTAATTCCGGAGTCACCTAGTGCAG | 4550 fluorescence intensity (a.u.)
GAAGATGATTGTTAAGTGGAAGTATAGAACTGAAACTTTCCGGAGTCACCTAGTGCAG | 10700 fluorescence intensity (a.u.)
ATTTGTCTATTGTGATAGATGACATGGATGTAAATGATAGCGGAGTCACCTAGTGCAG | 5660 fluorescence intensity (a.u.)
CCAATGATTTGGCTTCAAACCAAAATCACCAGATACACTGCGGAGTCACCTAGTGCAG | 16800 fluorescence intensity (a.u.)
TGATTGGTAATCAATCAATTATTATCATATACTCGCACTGCGGAGTCACCTAGTGCAG | 62300 fluorescence intensity (a.u.)
GATAGATGATATACCCGTTAACAATGAGACGTTTGTGGAGCGGAGTCACCTAGTGCAG | 3270 fluorescence intensity (a.u.)
ATCTCCTTGATTGCCACATCAACAGAACCGCGAACCATATCGGAGTCACCTAGTGCAG | 32100 fluorescence intensity (a.u.)
GTTAATTAGTTAACGACCAATCGAGCCTACTAGTATAAATCGGAGTCACCTAGTGCAG | 18000 fluorescence intensity (a.u.)
TTTTATGTCTGTCTGATTTCATTCTATTTCATGGTAGGTTCGGAGTCACCTAGTGCAG | 3360 fluorescence intensity (a.u.)
TAAAATTAAATGGATGAGAGGATGAGAGTAATCTAGTAAACGGAGTCACCTAGTGCAG | 15900 fluorescence intensity (a.u.)
CATGATTGTACGGCGGAGTGAAGCCTCCCTCATCACGGTGCGGAGTCACCTAGTGCAG | 37800 fluorescence intensity (a.u.)
TTGATTTGACAATGTGGTGCTACAATAAACATTTGCTAATCGGAGTCACCTAGTGCAG | 33300 fluorescence intensity (a.u.)
TGCTAATTTGGTTGTTGCGGTCAACTTTCCTAGCTGGTCACGGAGTCACCTAGTGCAG | 17100 fluorescence intensity (a.u.)
TGATAATAATCTGTTCAATAATTTATCTTAAACAGGGCCTCGGAGTCACCTAGTGCAG | 11200 fluorescence intensity (a.u.)
CCAAAATTAGCTTCGGTCGGTACAAACACCAGAATTCAGCCGGAGTCACCTAGTGCAG | 3710 fluorescence intensity (a.u.)
ACTCCTGACTTGATTGGCAGTGAGTTGCTCATCTGCCTAGCGGAGTCACCTAGTGCAG | 40300 fluorescence intensity (a.u.)
GAAATTGATCAGAAAGAGAGACAAGAGAAGAGCTAGGGTTCGGAGTCACCTAGTGCAG | 16800 fluorescence intensity (a.u.)
